# About 14,000 (4.5%) of roughly 310,000 compounds showed an effect of 50% or more. Effects have a minus sign here. The list shows a part of the results.
# Molecular target: human ether-à-go-go-related gene (hERG) potassium channel (human, UniProt Q12809)
# Experiment: primary screen, population patch clamp on CHO cells stably expressing hERG
# 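Further: peak tail current of the secondary pulse compared with the same well before compound.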
# Chain of human ether-à-go-go-related gene (hERG) potassium channel (Q12809 whole entry, looked up): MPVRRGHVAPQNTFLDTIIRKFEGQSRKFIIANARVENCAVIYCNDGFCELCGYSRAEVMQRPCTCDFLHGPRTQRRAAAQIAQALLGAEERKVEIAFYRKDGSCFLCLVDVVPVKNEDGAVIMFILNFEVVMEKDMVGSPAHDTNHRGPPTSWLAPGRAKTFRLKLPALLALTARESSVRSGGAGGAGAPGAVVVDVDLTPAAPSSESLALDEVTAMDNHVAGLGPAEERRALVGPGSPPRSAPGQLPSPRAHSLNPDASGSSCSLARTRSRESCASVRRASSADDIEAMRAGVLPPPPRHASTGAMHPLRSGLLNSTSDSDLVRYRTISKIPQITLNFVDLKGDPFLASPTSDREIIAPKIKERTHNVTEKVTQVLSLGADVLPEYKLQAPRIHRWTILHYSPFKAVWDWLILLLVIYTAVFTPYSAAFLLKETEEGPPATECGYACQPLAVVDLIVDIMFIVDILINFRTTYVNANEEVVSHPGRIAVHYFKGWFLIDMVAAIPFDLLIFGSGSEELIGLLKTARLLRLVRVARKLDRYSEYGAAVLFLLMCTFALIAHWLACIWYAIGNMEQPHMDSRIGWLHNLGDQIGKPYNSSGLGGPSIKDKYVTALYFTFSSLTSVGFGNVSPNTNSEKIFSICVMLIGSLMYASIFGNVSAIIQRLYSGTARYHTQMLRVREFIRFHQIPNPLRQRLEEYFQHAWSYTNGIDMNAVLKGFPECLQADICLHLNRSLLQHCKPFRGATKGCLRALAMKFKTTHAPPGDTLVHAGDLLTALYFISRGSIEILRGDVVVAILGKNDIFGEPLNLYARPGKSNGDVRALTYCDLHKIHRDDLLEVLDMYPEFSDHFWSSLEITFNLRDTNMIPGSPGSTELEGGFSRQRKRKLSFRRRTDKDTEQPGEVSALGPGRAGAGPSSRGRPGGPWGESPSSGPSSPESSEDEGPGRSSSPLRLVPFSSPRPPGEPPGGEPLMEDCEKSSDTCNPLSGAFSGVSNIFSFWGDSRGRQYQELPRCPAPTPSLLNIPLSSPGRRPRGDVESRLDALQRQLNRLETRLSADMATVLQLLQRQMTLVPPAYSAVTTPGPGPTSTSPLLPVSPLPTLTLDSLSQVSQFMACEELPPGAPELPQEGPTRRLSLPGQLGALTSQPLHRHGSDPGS
row,Compound,"hERG current change (%, negative = inhibition) at 10uM"
1,NCCc1ccccn1,2.96%
2,CCOC(=O)Cn1nnnc1C,16%
3,CCCCCCn1c(O)c(C(C)=NC)c(=O)[nH]c1=O,1.56%
4,Br.NCCCC(=O)OC1N=C(c2ccccc2Cl)c2cc(Br)ccc2NC1=O (stereo not shown),-12.6%
5,Cc1c(C(=O)N(C)Cc2ccccc2)oc2c(Cl)cccc12,-35.5%
6,CCOC(=O)CSc1ncc(-c2ccccc2)cn1,-16.3%
7,COc1ccc([N+](=O)[O-])cc1CSc1ccccn1,1.85%
8,Cc1nc2ccc(NC(=O)CS(=O)(=O)c3ccc(F)cc3)cc2s1,-7.44%
9,CCc1ccc(NP(=O)(Oc2ccccc2F)Oc2ccccc2F)cc1,16.3%
10,CC(C)NC(=S)Nc1ccc(S(=O)(=O)Nc2ncccn2)cc1,2.63%
11,CCOC(=O)C1(S(=O)(=O)c2ccccc2)CCN(Cc2ccc(Cl)cc2)CC1,-7.54%
12,CC(C)CC(=O)c1c[nH]c(C(=O)NCCCn2ccnc2)c1,8.06%
13,Cc1[nH]c(C)c(S(=O)(=O)Nc2ccc(F)cc2Cl)c1C(=O)N1CCCC1,9.97%
14,COc1ccc(C(=O)Nc2cc(-c3ccc(C)cc3)no2)cc1,19.8%
15,NC(=O)c1nc(C2CCCCC2)nc2c1[nH]c(=O)n2-c1ccc(F)cc1,3.03%
16,O=C(CSc1nc(-c2ccccc2)cs1)Nc1nccs1,-8.07%
17,Cc1ccc(-n2nc3c(c2NC(=O)C(C)(C)C)CS(=O)(=O)C3)cc1,15.8%
18,O=C(O)c1ccc(/C=N\Nc2ccccn2)cc1,20.3%
19,CCN1CCC(NCCc2ccc(F)cc2)CC1,-0.893%
20,S=C(Nc1cccc(Cl)c1)Nc1ccc2cn[nH]c2c1,-15.5%
21,O=C(Nc1ccc2cn[nH]c2c1)c1c(Cl)cccc1Cl,-2.04%
22,CCN(C(=O)COC(=O)/C=C/c1cnc2ccccc2n1)C1CCS(=O)(=O)C1 (stereo not shown),-9.37%
23,Cc1c2c(n3c(nc4ccccc43)c1C#N)N(CCN(C)C)CC2,-21.4%

row,Compound,"hERG current change (%, negative = inhibition) at 10uM"
1,COc1cc(OC)cc(C(=O)NC2CC(C)(C)NC(C)(C)C2)c1.Cl,5.85%
2,Cc1ccc(N2CC(C)Cn3c2nc2c3c(=O)[nH]c(=O)n2C)cc1C (stereo not shown),-10.9%
3,Cc1nn(Cc2ccccc2)c(Cl)c1C(=O)NCCc1ccc(Cl)cc1,-0.126%
4,Cc1ccc(C(=O)NCC(=O)O)o1,-5.14%
5,CC(=O)Nc1ccc(NC(=O)COc2ccc(Cl)cc2Cl)cc1,7.98%
6,Nc1nc(N2CCN(C(c3ccccc3)c3ccccc3)CC2)n[nH]1,15.4%
7,O=C(c1ccc(F)cc1)N1C2CCC1CC(O)(c1ccc(F)cc1)C2 (stereo not shown),-20.6%
8,Cn1cc(S(=O)(=O)Nc2ccc(F)cc2F)c(=O)n(C)c1=O,5.72%
9,COC(=O)c1ccc(NC(=O)c2ccc(NS(=O)(=O)c3cccc4cccnc34)cc2)cc1,12.8%
10,O=C(NCCCO)c1c(O)c2cccc3c2n(c1=O)CCC3,-11.3%
11,O=C1CC(c2ccccc2)Cc2nc3nc(C(F)(F)F)nn3cc21 (stereo not shown),14.5%
12,O=C(N/N=C/c1ccccc1OC(=O)N1CCOCC1)c1cccs1,16.7%
13,O=C1CC(c2c(F)cccc2Cl)C(n2cncn2)C(O)=C1C1NCCc2ccccc21 (stereo not shown),18.3%
14,CC(C)c1ccc(/C=C/C(=O)Nc2nn[nH]n2)cc1,15%
15,N/C(=N\OC(=O)c1cc(-c2ccccc2)nc2ccccc12)c1ccncc1,-11.2%
16,CCOc1ccc(/C(=N\O)C(C)NO)cc1 (stereo not shown),-0.79%
17,CCn1c(CNC(=O)Cc2ccc(OC)cc2)nnc1SCC(=O)Nc1nccs1,-5.75%
18,C/C(=N\S(=O)(=O)c1ccc(C)cc1)Nc1cc(C(C)C)c(O)cc1C,-5.31%
19,O=C(CN1CCN(Cc2ccc(F)cc2Cl)C1=O)NCCCN1CCOCC1,-2.72%
20,CC(=O)Nc1ccc(S(=O)(=O)N2CCN(c3cnn(C)c(=O)c3Cl)CC2)cc1,-4.1%
21,CCOC(=O)C1=C(C)N(C)C(=O)NC1c1c(O)ccc2ccccc12 (stereo not shown),8.89%
22,C#CCOCCOCCOCCNc1nc(N2CCN(C(=O)[C@H]([C@@H](C)CC)n3cc(CCCC[NH3+])nn3)CC2)nc(N2CCN(C(=O)[C@H](CCCC[NH3+])n3cc(CCC(=O)O)nn3)CC2)n1.[Cl-],5.05%
23,COc1cc(Cl)cc(C2NC(=S)NC(c3ccccc3)=C2C(C)=O)c1OCC(=O)O (stereo not shown),18.4%

row,Compound,"hERG current change (%, negative = inhibition) at 10uM"
1,Cc1ccc(S(=O)(=O)Nc2cc(C)c(O)cc2C)cc1,8.21%
2,C=CCN(c1ccccc1)S(=O)(=O)c1cc2c(cc1C)N(C)CCO2,-19.3%
3,COc1ccc(CCC(=O)Nc2ncc(C)s2)cc1OC,16.2%
4,CCOC(=O)N1CCC(NC(=O)c2oc3c(F)cccc3c2C)CC1,-15.4%
5,COC(=O)[C@@]1(Cc2ccc(F)cc2)[C@H]2c3cc(C(=O)N(C)C)n(Cc4ccc(OC(F)(F)F)cc4)c3C[C@H]2CN1C(=O)c1ccccc1,2.51%
6,C=CCn1c(C(C)NC(=O)CC)nc2ccccc21 (stereo not shown),10.6%
7,Cc1ccc(C(=O)Nc2nc(=O)n(C(=O)c3ccccc3C)s2)cc1,34.3%
8,Cc1cc(C(C)(C)C)ccc1OCCN(C)C,-7.47%
9,O=[N+]([O-])/C=C/c1cn(Cc2ccc(F)cc2)c2ccccc12,6.87%
10,CC(=O)C1=C(c2ccccc2)OC(N)=C(C#N)C1c1ccccc1C (stereo not shown),2.19%
11,Cc1cccc(C)c1NC(=O)C(Cl)=C(Cl)Cl,-16.9%
12,O=C(NCCCN1CCCC1=O)c1sc2ccccc2c1Cl,-7.37%
13,CCc1nc(N=Nc2c(O)[nH]c3ccccc23)c2c3c(sc2n1)CCC3,13.7%
14,COc1ccccc1C1(O)CCN(C(=O)c2cccs2)CC1,1.95%
15,COc1ccc(NC(=O)CCS(=O)(=O)c2ccccc2Cl)cc1S(=O)(=O)Nc1ccc(Cl)cc1,8.4%
16,CC(C)OC(=O)C(CC(=O)O)NCc1ccccc1 (stereo not shown),-3.47%
17,CCOc1ccc2nc(N3CCCC(C(=O)NCCCN4CC(C)CC(C)C4)C3)sc2c1 (stereo not shown),-48.8%
18,CC(C)Nc1c([N+](=O)[O-])c(=O)oc2ccccc12,10.1%
19,COc1ccc(Nc2ncnc3scc(-c4ccc(OC)cc4)c23)cc1,-3.22%
20,O=C1CCC2c3ccc4ccccc4c3CCN12 (stereo not shown),-7.9%
21,FC(F)C(F)(F)c1cc(-c2ccccc2)n[nH]1,3.21%
22,CCCNC(=O)C1CC(=O)N(c2ccc(OCC)cc2)C1 (stereo not shown),-10.7%
23,CN(c1ccc(Cl)cc1)c1cc(=O)n(C)c2ccccc12,-51.8%

row,Compound,"hERG current change (%, negative = inhibition) at 10uM"
1,Cc1ccc2oc(C(=O)N(C)Cc3cnccn3)c(C)c2c1,2.42%
2,CN(C)CCNC=C(C(=O)Nc1ccc(Cl)cc1Cl)C(=O)Nc1ccc(Cl)cc1Cl,18.8%
3,COC(=O)c1cc(C(=O)OC)n(Cc2ccc(C)cc2)c1C,-44.2%
4,COc1cc(CC(=O)N2CCc3ccccc32)cc(OC)c1OC,3.2%
5,Nn1c(COc2ccccc2)nnc1SCC(=O)O,1.79%
6,O=C1CC(N2CCN(c3nc4ccccc4s3)CC2)C(=O)N1Cc1cccs1 (stereo not shown),-62.3%
7,c1ccc(N2CCN(c3ccccc3)C2c2ccncc2)cc1,-9.04%
8,CCOc1cc(/C=C(\C#N)C(=O)NCc2cccnc2)ccc1O,-8.66%
9,COc1ccccc1CNC(=O)C1CCN(S(=O)(=O)c2ccc(N3CCCC3=O)cc2)CC1,-4.97%
10,COc1ccc(C(CNS(=O)(=O)c2ccc(F)cc2)N2CCN(C)CC2)cc1 (stereo not shown),-32.5%
11,CCOC(=O)/C(C(C)=O)=C1\OC(=O)c2ccccc21,13.2%
12,CCCSc1nc2c(c(=O)n1CC)SC(C)C2 (stereo not shown),-17.5%
13,CCOc1ccc(CCNC(=O)CSc2nnnn2C)cc1OCC,3.57%
14,CCn1c(=NC(=O)CS(=O)(=O)c2ccccc2)sc2cccc(OC)c21,-16.9%
15,CCN(CC)CCCNC(=O)C(C)n1c2ccccc2c2nc(=O)cc(C)n21 (stereo not shown),7.23%
16,CCCC1Cc2c(sc3nc(SC)nc(N)c23)CO1 (stereo not shown),4.16%
17,CCOC(=O)c1cccc(-c2ccc(C=O)o2)c1,-0.133%
18,CNC(=O)CN(C)S(=O)(=O)c1ccc(OC)c(Cl)c1,6.65%
19,CC(C)CNC(=O)CO/N=C/c1ccccc1Cl,1.45%
20,CC(=O)C1=C(O)C(=O)N(c2nccs2)C1c1ccccc1 (stereo not shown),2.24%
21,CCCOc1ccc(/C=C/c2[nH]c(=O)[nH]c(=O)c2[N+](=O)[O-])cc1OCC,-1.51%
22,CCN(CC)S(=O)(=O)c1cccc(-c2cn3cccnc3n2)c1,-26.1%
